According to PubChem BioAssay AID1240 (Sanford-Burnham Center for Chemical Genomics, 2008):
Out of some 50,000 compounds screened, about 800 (1.6%) showed an effect of 50% or more. Some of the results follow.

What follows are compounds tested against Bcl-2-like protein 10 (Homo sapiens) (UniProt Q9HD36) (assay: Phenotype converters, Bcl-B/TR3 peptide binding displacement, primary biochemical FP (AID 1240;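 further: 0% = Bcl-B with tracer peptide and DMSO and 100% = tracer peptide lacking Bcl-B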)). Conditions: GST-Bcl-B / FITC-TR3 peptide fluorescence polarization; stronger effect = higher value; compound at 3.75 mg/L.
Chain of UniProt Q9HD36 (Q9HD36 whole entry, looked up): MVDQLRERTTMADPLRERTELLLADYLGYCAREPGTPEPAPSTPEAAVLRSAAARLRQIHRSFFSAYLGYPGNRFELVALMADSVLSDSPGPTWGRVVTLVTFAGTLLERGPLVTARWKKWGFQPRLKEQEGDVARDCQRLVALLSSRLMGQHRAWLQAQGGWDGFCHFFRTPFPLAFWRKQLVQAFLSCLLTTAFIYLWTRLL
Work on `O/N=C(/CSc1nc2ccccc2s1)c1ccccc1` yielded a displacement of -4.5%. `O=C(Oc1nn(-c2ccccc2)cc1C(=O)c1ccccc1)c1ccccc1` showed a displacement of 12.9%. In the case of `CCOc1ccccc1N(CC(=O)Nc1ccc(C)c(C)c1)S(=O)(=O)c1ccccc1`, the displacement is reported as 0.4%. `CC(C)OC(=O)c1cc2nc(-c3cccs3)cc(C(F)(F)F)n2n1` gave a displacement of 14.1%. Work on `COc1ccc(OC)c(Cn2c(O)c(/C=C3\C=CC=N3)c(=O)[nH]c2=O)c1` yielded a displacement of 18.1%. `N#CSC(C#N)Cc1cccc([N+](=O)[O-])c1` (centres undefined) gave a displacement of 1.6%. In the case of `C=CCOC(=O)C1=C(C)NC2=C(C(=O)CCC2)C1c1ccccc1Cl` (centres undefined), the displacement is reported as 3.7%. In the case of `CC1=NN(c2nc(-c3ccc(Br)cc3)cs2)C(=O)C1C` (centres undefined), the displacement is reported as -15.3%. With `CCc1ccc(NC(=O)CSc2nc3ccc(N)cc3s2)cc1` the displacement was 1.9%. Work on `O=C1/C(=C\c2ccco2)SC(=S)N1Cc1ccccc1` yielded a displacement of 39.3%. `CCn1c(NC(=O)c2ccc(Cl)cc2)nc2ccccc21` was tested, and the displacement was 11.9%. For `CN(C)c1ccc(/C=C(\NC(=O)c2ccccc2)C(=O)Nc2ccc(Cl)cc2)cc1`, the displacement was -4.5%. Work on `O=P(c1ccccc1)(c1ccccc1)C(O)c1ccco1` (centres undefined) yielded a displacement of -0.1%. `Cc1cc(Cl)ccc1NC(=O)CN(c1cccc([N+](=O)[O-])c1)S(=O)(=O)c1ccccc1` gave a displacement of 5%. `Cc1ccc(NCC(=O)N/N=C\c2ccc(OC(=O)c3ccccc3Cl)cc2)cc1` gave a displacement of -15%. In the case of `COc1cc(/C=C2\C(=O)NN(c3ccccc3)C2=O)cc(OC)c1OC`, the displacement is reported as -6.6%. In the case of `O=S(=O)(Nc1ccc(Cl)cn1)c1ccc(Cl)cc1`, the displacement is reported as -15.6%. For `O=P(CCNCc1ccco1)(c1ccccc1)c1ccccc1`, the displacement was -3.3%. Work on `O=C(CCCOc1ccc(Cl)cc1Cl)Nc1ccc2c(c1)COC2=O` yielded a displacement of -11.3%. Work on `COc1ccc(C(=O)/C=C/c2cccc(OC)c2)cc1` yielded a displacement of 7.5%. With `COc1ccc(C(=O)Nc2ccccc2)cc1NC(=O)c1ccccc1C` the displacement was 0%. Compound `CCc1ccc(-c2csc(N)n2)cc1` has a displacement of -3.2%. `COc1cc(C(=O)N2CCN(C3CCCCCC3)CC2)cc(OC)c1OC` showed a displacement of -1.6%. `O=C(c1cc(F)c(F)cc1Cl)N1CCCC1` was tested, and the displacement was 0%. In the case of `CC(=O)CC(=O)Nc1ccc(Cl)c(C(F)(F)F)c1`, the displacement is reported as 14.3%. In the case of `COc1ccccc1/C=C/C=N/NC(=O)c1cc(C)[nH]n1`, the displacement is reported as 2.8%. `O=C(/C=C/c1cccs1)c1c(-c2ccccc2)c2cc(Cl)ccc2[nH]c1=O` gave a displacement of 15.4%. With `CC1CCc2c(sc(NC(=O)c3ccccc3Cl)c2C(=O)NCc2ccco2)C1` (centres undefined) the displacement was -13.2%. Work on `COC(=O)C1=C(C)N(c2ccccc2F)C(=O)/C1=C\c1ccccc1F` yielded a displacement of 112%. Compound `COc1cccc(OC)c1C(=O)NCC1CCCO1` (centres undefined) has a displacement of -17.2%. For `CCc1nccn1S(=O)(=O)c1cc(Cl)ccc1OC`, the displacement was -5.5%. Compound `O=C1CC(N2CCN(c3cccc(Cl)c3)CC2)C(=O)N1c1cccc(Cl)c1` (centres undefined) has a displacement of 2.7%. `COc1ccc(Cl)cc1C(=O)N1CCN(c2ccc([N+](=O)[O-])cc2)CC1` was tested, and the displacement was 7.5%. `COc1cccc(NC(=O)c2cc3ccccc3cc2OC)c1` was tested, and the displacement was 10.2%. For `CN(C1CCS(=O)(=O)C1)S(=O)c1ccc2ccccc2c1` (centres undefined), the displacement was -5.8%. `Cc1ccc(NC(=O)/C=C/c2ccco2)c([N+](=O)[O-])c1` showed a displacement of 1.7%. With `COc1cc(C(=O)Nc2cc(-c3nc4ncccc4o3)ccc2C)cc(OC)c1OC` the displacement was -2.2%. Compound `COc1ccc(N2C(=O)NC(=O)/C(=C/c3cccc(OCc4ccccc4F)c3)C2=O)cc1` has a displacement of 0.1%. `Cc1ccc(C(=O)N/C(=C/c2ccc(Br)cc2)C(=O)N2CCOCC2)cc1` gave a displacement of -2.1%. `CN1CCN(CCOCCOc2ccc(Br)cc2)CC1` gave a displacement of -14.9%. With `O=C(/C=C/c1ccc([N+](=O)[O-])cc1)Nc1cccc(C(F)(F)F)c1` the displacement was 2.7%. For `COC(=O)C1=C(C)NC(=O)N(C(C)=O)C1c1cccs1` (centres undefined), the displacement was 10.3%. `CC(C)(C)NC(=O)C(=O)N/N=C/c1ccc(Cl)cc1Cl` showed a displacement of 6.8%. `COCCNC(=S)Nc1ccc(Cl)cc1Cl` was tested, and the displacement was -14.8%. With `O=C(Cc1ccc(Cl)cc1)Nc1ccc(-c2nc3ccccc3o2)cc1` the displacement was 13.4%. `CN(C)c1cccc(C(=O)NCc2ccc(S(N)(=O)=O)cc2)c1` was tested, and the displacement was 1.7%. `CCOc1cc(C2Nc3cc(C)c(C)cc3NC3=C2C(=O)CC(C)(C)C3)ccc1OC(=O)C1CC1` (centres undefined) gave a displacement of -9.2%. Compound `CN(C)c1cccc(C(=O)N2CCc3ccccc3C2)c1` has a displacement of 9.1%. In the case of `Cc1c(NC(=O)c2ccc(S(=O)(=O)N3CC(C)OC(C)C3)cc2)c(=O)n(-c2ccccc2)n1C` (centres undefined), the displacement is reported as -14.2%. Work on `Cc1cc(C)cc(CSCC(=O)Nc2ccc(C(C)C)cc2)c1` yielded a displacement of -3.1%. Compound `CC(N=C1NS(=O)(=O)c2ccccc21)c1ccccc1` (centres undefined) has a displacement of 9.5%. In the case of `O=C(CSc1nsc(SCC(=O)Nc2ccc(F)cc2)n1)Nc1ccc(F)cc1`, the displacement is reported as -8.7%. With `Cc1ccc(C2CC(C(F)(F)F)n3nc(C(=O)NC(C)C)cc3N2)cc1` (centres undefined) the displacement was 5.1%. For `CCOc1ccc(N2C(=O)/C(=C/c3ccc(-c4ccccc4C(=O)O)o3)C(=O)NC2=S)cc1`, the displacement was 6.8%. `CCOc1ccc(C(=O)NCCNc2ccc([N+](=O)[O-])cc2)cc1Cl` was tested, and the displacement was -5%. For `N#Cc1c(NCc2ccccc2)ncc2c1Nc1ccccc1C2`, the displacement was 112%. In the case of `Cc1cc(C)c(NC(=O)COc2ccccc2[N+](=O)[O-])c(C)c1`, the displacement is reported as -9.6%. Compound `O=C(CSc1nc2ccccc2[nH]1)Nc1nc2c(s1)CCCC2` has a displacement of -5.1%. For `CCOC(=O)c1ccc(NC(=O)CN(c2ccccc2)S(=O)(=O)c2ccccc2[N+](=O)[O-])cc1`, the displacement was 1.2%. `CN(C)c1ccc(/C=C2\C(=O)C(=O)c3ccccc32)cc1Br` was tested, and the displacement was -5.7%. `COc1cc(C=O)ccc1Oc1ccc([N+](=O)[O-])cn1` gave a displacement of -2.9%. Work on `CC(C)C(NS(=O)(=O)c1ccc(Cl)cc1)C(=O)NN` (centres undefined) yielded a displacement of 5.8%. Compound `COc1ccc(NC(=O)c2cnn3c(C(F)(F)F)cc(-c4ccco4)nc23)cc1OC` has a displacement of 4.5%. With `Cc1c(NS(=O)(=O)c2cccs2)c(=O)n(-c2ccccc2)n1C` the displacement was -0.2%. In the case of `O=C(NCc1ccncc1)c1ccc(C#CC2(O)CCCCC2)cc1`, the displacement is reported as -3%. `CC(=O)Nc1ccc(NC(NC(=O)c2cccc(I)c2)C(Cl)(Cl)Cl)cc1` (centres undefined) gave a displacement of 7.6%. In the case of `O=C(O)C1C2CCC(O2)C1C(=O)Nc1cccc(F)c1` (centres undefined), the displacement is reported as -6.7%. With `CC(=O)Nc1ccc(S(=O)(=O)n2c(C)cc(C)nc2=O)cc1` the displacement was 5.8%. `Cc1cc(NC(=O)c2ccccc2)n(-c2ccccc2)n1` showed a displacement of -63.1%. In the case of `COc1ccc(NC(=O)C2CC3CCC2C3)cc1OC` (centres undefined), the displacement is reported as 11.8%. With `COc1ccc(C(=O)Nc2cccc(S(N)(=O)=O)c2)cc1` the displacement was -5.8%. Work on `COC(=O)CN(c1ccc(Cl)cc1Cl)S(=O)(=O)c1ccc(C)cc1` yielded a displacement of -7%. `O=[N+]([O-])c1ccc(Oc2ccc(S(=O)(=O)N3CCN(c4ccccc4)CC3)cc2)cc1` showed a displacement of -6.6%. For `COc1ccc(Br)cc1/C=C1\SC(N2CCOCC2)=NC1=O`, the displacement was 8.8%. Compound `Cc1nc2ccc(NC(=S)N3CCC(C)CC3)cc2nc1C` has a displacement of -12%. `CC(C)c1ccc(NC(=O)COc2ccc3ccccc3c2)cc1` gave a displacement of 0.2%. In the case of `CCOC(=O)COc1ccc2c(C(F)(F)F)cc(=O)oc2c1`, the displacement is reported as -3.3%. `COC(=O)C1=C(C)N(C)C(C)=C(C(=O)OC)C1c1cccc(Cl)c1` gave a displacement of -13.8%. Work on `O=C(N/N=C/c1ccc(OC2CSC2)cc1)c1ccccc1` yielded a displacement of -3.6%. `CC(NC(=O)CN(c1ccc(Cl)cc1)S(C)(=O)=O)c1ccccc1` (centres undefined) was tested, and the displacement was 8.8%. In the case of `CCOC(=O)C1=C(C)N=c2s/c(=C\c3cccs3)c(=O)n2C1c1ccc(OC)cc1` (centres undefined), the displacement is reported as 6.6%. For `COC(=O)CN1C(=O)/C(=C\c2ccc([N+](=O)[O-])cc2)SC1=S`, the displacement was 5%. `COc1cccc(NC(=O)COc2cc(C)ccc2C(C)C)c1` gave a displacement of 3%. Compound `CCSC1(SCC)N=C(N)C2(C#N)C(c3ccccc3)NC3=C(CCCC3)C12C#N` (centres undefined) has a displacement of -19.7%. For `Cc1cc(C=C(C#N)C#N)c(C)n1-c1cccc(Cl)c1`, the displacement was 8%. For `CSc1nc(-c2ccccc2)nc(N2CCN(C)CC2)c1C(C)=O`, the displacement was -17%. Compound `COC(=O)C(CC(C)C)NC(=O)CSc1nnc(C)c(=O)[nH]1` (centres undefined) has a displacement of -3.9%. In the case of `O=C(c1ccc2c(c1)OCO2)N1CCC(Cc2ccccc2)CC1`, the displacement is reported as 3%. `Cc1cccc(C(C)C)c1-n1nnnc1-c1ccccc1` was tested, and the displacement was 4.4%. `Cc1ccc(C)c(NC(=O)C2CC(=O)N(c3ccc(Cl)cc3)C2)c1` (centres undefined) showed a displacement of 11.9%. With `O=C1CC(c2ccc(Cl)cc2)CC2=C1C(c1cccc([N+](=O)[O-])c1)Nc1ccccc1N2` (centres undefined) the displacement was -3.5%. In the case of `CC(C)Oc1ccccc1NC(=O)c1cccs1`, the displacement is reported as 3.4%. `O=P(Cc1ccncc1)(c1ccccc1)c1ccccc1` gave a displacement of 5.8%. Work on `O=C(NCc1ccccn1)C12CC3CC(CC(C3)C1)C2` yielded a displacement of -4.4%. `COC(=O)c1ccc(-c2ccc(/C=C3/SC(=S)N(c4ccccc4)C3=O)o2)cc1` gave a displacement of 12.6%. `C=CCC1S/C(=N\N=C\c2ccccc2)NC1=O` (centres undefined) was tested, and the displacement was 14.6%. Compound `CCCCCCCc1ccc(-c2ccc(O)cc2)nc1` has a displacement of 0.7%. `COC(=O)C1=C(C)N(c2ccccc2F)C(=O)/C1=C\c1cccc(OC)c1` was tested, and the displacement was 10.1%. Compound `Cc1cc(C)c(NC(=O)c2ccccc2Br)c(C)c1` has a displacement of 20.4%. `CC1=C/C(=N\OC2=C(O/N=C3/C=CC(=O)C(C)=C3)C(=O)c3ccccc3C2=O)C=CC1=O` gave a displacement of 17.3%. For `CC(C)(C)c1ccc(C(=O)Nc2cc(C(N)=O)c(Cl)cc2Cl)cc1`, the displacement was 9%. `CCOc1ccc(-c2cc(C)n3nc(C(=O)O)cc3n2)cc1` gave a displacement of -12.3%. `Cc1ccc(-n2nc3cc(C)c(NC(=O)/C=C/c4cccc([N+](=O)[O-])c4)cc3n2)cc1` showed a displacement of -11.2%. In the case of `CC(CO)(CO)N=Cc1c(O)n(-c2ccccc2)c(=S)[nH]c1=O`, the displacement is reported as -6.6%. `CCn1c2ccccc2c2cc(/C=N/NC(=O)c3cccc([N+](=O)[O-])c3)ccc21` gave a displacement of 6.5%. `CC(=O)Nc1ccc(S(=O)(=O)NN2C(=O)c3ccccc3C2=O)cc1` gave a displacement of 11.4%. With `CCN(CC)C(=S)Nc1c(C)n(C)n(-c2ccccc2)c1=O` the displacement was -0.2%. In the case of `CC(C)CN1C(=O)c2ccc(C(=O)Nc3ccc(Br)cc3C(=O)O)cc2C1=O`, the displacement is reported as -12.5%. Work on `Cc1ccc2c(c1)C1C=CCC1C(c1ccccc1[N+](=O)[O-])N2` (centres undefined) yielded a displacement of 6.9%.
